Reference: publication PMC6697693
Results are given in words; binding and its absence hold for the method and conditions named. Some entries that bind do so weakly or less than the wild type.

The chains behind the UniProt entries cited, without tags or fusion partners. Where a name states a change or a piece, a line headed by the entry shows the natural chain unless it says otherwise.
UniProt P09446: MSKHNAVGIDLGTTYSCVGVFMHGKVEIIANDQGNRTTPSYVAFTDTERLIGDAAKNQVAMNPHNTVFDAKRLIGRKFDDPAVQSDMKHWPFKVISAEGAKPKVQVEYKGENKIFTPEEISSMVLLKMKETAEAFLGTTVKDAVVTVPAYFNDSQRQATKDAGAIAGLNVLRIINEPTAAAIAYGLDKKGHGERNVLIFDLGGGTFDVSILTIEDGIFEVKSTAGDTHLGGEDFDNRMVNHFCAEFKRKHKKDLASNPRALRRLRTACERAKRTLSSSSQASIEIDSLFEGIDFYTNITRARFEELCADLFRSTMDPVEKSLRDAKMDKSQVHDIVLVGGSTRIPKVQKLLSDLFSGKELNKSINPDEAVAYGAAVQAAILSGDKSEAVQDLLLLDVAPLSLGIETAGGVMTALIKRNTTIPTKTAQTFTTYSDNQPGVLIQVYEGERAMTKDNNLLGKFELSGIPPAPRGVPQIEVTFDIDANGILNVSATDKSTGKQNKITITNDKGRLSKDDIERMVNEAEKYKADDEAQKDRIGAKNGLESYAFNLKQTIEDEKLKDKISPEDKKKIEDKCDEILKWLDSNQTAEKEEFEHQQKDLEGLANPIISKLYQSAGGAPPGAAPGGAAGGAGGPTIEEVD
UniProt Q20774: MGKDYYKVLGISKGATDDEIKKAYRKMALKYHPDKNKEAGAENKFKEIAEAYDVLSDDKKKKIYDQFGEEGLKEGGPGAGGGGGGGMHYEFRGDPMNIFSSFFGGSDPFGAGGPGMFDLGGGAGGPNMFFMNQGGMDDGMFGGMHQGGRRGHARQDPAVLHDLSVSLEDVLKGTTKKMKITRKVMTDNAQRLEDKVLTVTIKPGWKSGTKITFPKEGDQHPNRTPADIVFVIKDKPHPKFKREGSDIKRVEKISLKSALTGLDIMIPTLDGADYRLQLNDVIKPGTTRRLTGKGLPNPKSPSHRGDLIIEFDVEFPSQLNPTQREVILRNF
UniProt O45502: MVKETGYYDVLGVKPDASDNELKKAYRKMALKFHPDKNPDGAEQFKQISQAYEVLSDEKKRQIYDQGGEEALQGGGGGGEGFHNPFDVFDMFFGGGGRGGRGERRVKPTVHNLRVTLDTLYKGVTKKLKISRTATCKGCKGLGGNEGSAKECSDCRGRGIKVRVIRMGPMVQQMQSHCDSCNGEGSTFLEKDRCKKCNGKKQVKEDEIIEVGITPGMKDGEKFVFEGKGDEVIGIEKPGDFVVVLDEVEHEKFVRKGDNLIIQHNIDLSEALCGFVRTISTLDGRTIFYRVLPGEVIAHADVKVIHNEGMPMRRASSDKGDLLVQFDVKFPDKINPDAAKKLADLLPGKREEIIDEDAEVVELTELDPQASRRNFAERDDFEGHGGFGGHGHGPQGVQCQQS

Key:
Hsc70 D233N (C. elegans) = Hsc70 D233N (C. elegans) (UniProt P09446); test: AUC; sedimentation velocity, UV/VIS optics, 0.5 mg/mL protein; dc/dt plots and UltraScan II analysis; oligomerization status of Hsc70 variants; both purified
[1] = biological target: DNJ-13 (nematode DNAJB-homolog), fluorescently labelled (C. elegans) (UniProt Q20774); test: AUC; sedimentation velocity with fluorescence detection, 600 nM *DNJ-13 with 4 µM Hsc70 variant, absence of nucleotide, 42,000 rpm, 20 °C, 40 mM HEPES/KOH pH 7.5, 150 mM KCl, 1 mM DTT, 5 mM MgCl2; both purified
[2] = biological target: DNJ-12 (nematode DNAJA-homolog), fluorescently labelled (C. elegans) (UniProt O45502); test: AUC; sedimentation velocity with fluorescence detection, 300 nM *DNJ-12 with Hsc70 variant in the presence of ATP, 42,000 rpm, 20 °C, 40 mM HEPES/KOH pH 7.5, 150 mM KCl, 1 mM DTT, 5 mM MgCl2; both purified
[3] = biological target: DNJ-12 (nematode DNAJA-homolog), fluorescently labelled (C. elegans) (UniProt O45502); test: AUC; sedimentation velocity with fluorescence detection, 300 nM *DNJ-12 with Hsc70 variant, absence of nucleotide, 42,000 rpm, 20 °C, 40 mM HEPES/KOH pH 7.5, 150 mM KCl, 1 mM DTT, 5 mM MgCl2; both purified
[4] = biological target: DNJ-13 (nematode DNAJB-homolog), fluorescently labelled (C. elegans) (UniProt Q20774); test: AUC; sedimentation velocity with fluorescence detection, 600 nM *DNJ-13 with Hsc70 variant in the presence of ATP, 42,000 rpm, 20 °C, 40 mM HEPES/KOH pH 7.5, 150 mM KCl, 1 mM DTT, 5 mM MgCl2; both purified
[5] = biological target: T1, BAG-1 (nematode nucleotide exchange factor), fluorescently labelled (C. elegans) (UniProt O44739); test: AUC; sedimentation velocity with fluorescence detection, 300 nM *BAG-1 with 2 µM Hsc70 variant, 42,000 rpm, 20 °C, 40 mM HEPES/KOH pH 7.5, 150 mM KCl, 1 mM DTT, 5 mM MgCl2; without nucleotide, and with ADP (complex diminished); both purified
T1 sequence (chain, ATTO 488 C5-maleimide at its cysteine residue): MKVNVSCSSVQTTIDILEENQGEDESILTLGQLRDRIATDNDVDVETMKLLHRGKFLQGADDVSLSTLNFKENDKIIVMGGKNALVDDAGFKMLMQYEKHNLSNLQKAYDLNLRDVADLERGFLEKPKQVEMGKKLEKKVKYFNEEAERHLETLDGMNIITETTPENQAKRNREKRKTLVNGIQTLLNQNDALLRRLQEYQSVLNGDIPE

Hsc70 D384N (C. elegans) = Hsc70 D384N (C. elegans) (UniProt P09446); test: AUC; sedimentation velocity, UV/VIS optics, 0.5 mg/mL protein; dc/dt plots and UltraScan II analysis; oligomerization status of Hsc70 variants; both purified
[6] = biological target: DNJ-13 (nematode DNAJB-homolog), fluorescently labelled (C. elegans) (UniProt Q20774); test: condition: only in the absence of nucleotide (4 µM Hsc70 A379V); AUC; sedimentation velocity with fluorescence detection, 600 nM *DNJ-13 with 4 µM Hsc70 variant, absence of nucleotide, 42,000 rpm, 20 °C, 40 mM HEPES/KOH pH 7.5, 150 mM KCl, 1 mM DTT, 5 mM MgCl2; both purified
Hsc70 A379V (C. elegans) = Hsc70 A379V (C. elegans) (UniProt P09446); test: AUC; sedimentation velocity, UV/VIS optics, 0.5 mg/mL protein; dc/dt plots and UltraScan II analysis; oligomerization status of Hsc70 variants; both purified
[7] = biological target: DNJ-13 (nematode DNAJB-homolog), fluorescently labelled (C. elegans) (UniProt Q20774); test: condition: only in the absence of nucleotide (4 µM Hsc70); AUC; sedimentation velocity with fluorescence detection, 600 nM *DNJ-13 with 4 µM Hsc70 variant, absence of nucleotide, 42,000 rpm, 20 °C, 40 mM HEPES/KOH pH 7.5, 150 mM KCl, 1 mM DTT, 5 mM MgCl2; both purified
[8] = biological target: wild type Hsc70 (nematode Hsc70, HSP-1) (C. elegans) (UniProt P09446); test: AUC; sedimentation velocity, UV/VIS optics, 0.5 mg/mL protein; dc/dt plots and UltraScan II analysis; oligomerization status of Hsc70 variants; both purified

Substance | binding (Hsc70 D233N (C. elegans)) | binding [1] | binding [2] | binding [3] | binding [4] | binding [5] | binding (Hsc70 D384N (C. elegans)) | binding [6] | binding (Hsc70 A379V (C. elegans)) | binding [7] | binding [8]
Hsc70 D233N (from UniProt P09446 1-640) | no binding (tested: 0.5 mg/mL) | binds weakly | binds weakly | no binding (condition: in the absence of nucleotide) | binds | – | – | – | – | – | –
Hsc70 S321F (from UniProt P09446 1-640) | – | no binding (tested: 4 µM Hsc70 S321F, absence of nucleotide) | – | – | no binding | no binding (tested: 2 µM Hsc70 S321F) | – | – | – | – | –
Hsc70 D384N (from UniProt P09446 1-640) | – | binds | binds | no binding (condition: in the absence of nucleotide) | binds | – | no binding (tested: 0.5 mg/mL) | – | – | – | –
Hsc70 A379V (from UniProt P09446 1-640) | – | – | binds weakly | no binding (condition: in the absence of nucleotide) | binds | – | – | no binding | no binding (tested: 0.5 mg/mL) | – | –
wild type Hsc70 (nematode Hsc70, HSP-1) (from UniProt P09446 1-640) | – | – | binds | no binding (condition: in the absence of nucleotide) | binds | – | – | – | – | no binding | no binding (tested: 0.5 mg/mL)
